Drawing on PubChem BioAssay AID1240 (Sanford-Burnham Center for Chemical Genomics, 2008), this text covers displacement for 30 compounds.

SMILES strings stand for the structures. Among all 50,000 compounds or so, about 800 (1.6%) showed an effect of 50% or more. The list shows a part of the results.

For this assay, the target named is Bcl-2-like protein 10 (Homo sapiens) (UniProt Q9HD36). The experiment in a line: Phenotype converters, Bcl-B/TR3 peptide binding displacement, primary biochemical FP (AID 1240).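 Also: 0% = Bcl-B with tracer peptide and DMSO and 100% = tracer peptide lacking Bcl-B.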 The settings on record: GST-Bcl-B / FITC-TR3 peptide fluorescence polarization; stronger effect = higher value; compound at 3.75 mg/L.
Chain of UniProt Q9HD36 (Q9HD36 whole entry, looked up): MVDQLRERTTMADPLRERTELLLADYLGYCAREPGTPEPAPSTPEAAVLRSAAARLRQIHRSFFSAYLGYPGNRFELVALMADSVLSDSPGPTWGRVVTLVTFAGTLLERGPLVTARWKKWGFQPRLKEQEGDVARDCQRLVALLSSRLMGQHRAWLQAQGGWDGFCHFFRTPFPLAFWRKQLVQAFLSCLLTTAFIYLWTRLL
In the case of `CC(=O)c1cccc(NC(=O)/C=C/c2ccccc2)c1`, the displacement is -2.2%.
As for `O=S(=O)(NNc1ccccc1)c1ccc(Cl)cc1`, the displacement is -4.4%.
The value for `Cc1cccc(OCCn2c(N)nc3ccccc32)c1` was -10.3%.
The value for `CN1CCN(S(=O)(=O)c2ccc(Oc3ccc([N+](=O)[O-])cc3)cc2)CC1` was 11.8%.
`O=C(Nc1ccc(Cl)cc1)Nc1nnc(-c2ccccc2Br)s1`: the displacement was 12.6%.
The value for `COc1cccc(C2C(C(=O)OCCc3ccccc3)=C(C)NC3=C2C(=O)CCC3)c1` (stereo not given) was -6.2%; that for `CCOc1cc(/C=C2\SC(=S)NC2=O)cc(Br)c1OC(C)=O` was -25.5%; that for `Cc1cc(Cl)ccc1OCC(O)CN1CCN(C)CC1` (stereo not given) was -0.3%.
The value for `COc1ccc(N2C(=O)CC(Cc3ccccc3OC)C2=O)cc1` (stereo not given) was 9.6%; that for `NC(=O)c1ccccc1NC(=O)/C(=C/c1ccccc1)c1ccccc1` was 10.1%; that for `CC(=O)Oc1ccc(C2C(C(=O)OCCOc3ccccc3)=C(C)NC3=C2C(=O)CCC3)cc1` (stereo not given) was -2.6%.
The value for `CSCCC(NC(=O)c1cc(COc2ccc(-c3ccccc3)cc2)c(C)o1)C(=O)O` (stereo not given) was 5.6%.
`CCOc1ccc(NC2=NS(=O)(=O)c3ccccc32)cc1`: the displacement is -9%.
The value for `Cc1ccc(C(=O)N/C(=C\c2cccs2)C(=O)NCc2cccnc2)cc1` was -6%.
The value for `Cc1ccc(S(=O)(=O)N2CCN(C3CC4CCC3C4)CC2)cc1` (stereo not given) was 16.2%; that for `CCc1ccccc1N(CC(=O)N1CCOCC1)S(C)(=O)=O` was 1.1%.
In the case of `Cc1cccc(/C=N/N2CCN(Cc3ccc(Cl)cc3)CC2)c1`, the displacement amounted to 9.1%.
The value for `C=C(C)Cn1c(SCC(=O)c2ccc(OC)cc2)nnc1-c1ccc(Br)cc1` was -7.2%; that for `O=C(O)c1ccc2c3c(cccc13)C(=O)N(c1cccc3ccccc13)C2=O` was -5.5%; that for `O=C1c2ccccc2-c2onc3ccc(N4CCCCC4)c1c23` was 145%.
Consider `CC(C)Oc1ccc(C2C3=C(CC(C)(C)CC3=O)Nc3ccccc3N2C(=O)Cc2ccccc2)cc1` (stereo not given), for which the displacement is -20.1%.
The value for `Cc1cccc(OCC(=O)NCc2ccncc2)c1` was 2.7%; that for `NC(=O)Cc1ccc2sc(-c3ccccc3)nc2c1` was -6.8%; that for `Cc1ccc(OCCCCCc2c(C)n[nH]c2C)c(C)c1` was -6.7%.
`CN(C)CCN1C(=O)C(=O)/C(=C(/O)c2ccccc2)C1c1ccc2c(c1)OCO2` (stereo not given): the displacement was found to be 4.9%.
The value for `CC(C)(C)SCCN=C1NS(=O)(=O)c2cc([N+](=O)[O-])ccc21` was -7.8%; that for `O=P(CN1CCCCC1)(c1ccccc1)c1ccccc1` was 11.6%; that for `CCCN(CCC)C(=O)Cc1ccc(Cl)cc1` was -6.7%.
The value for `Cc1c(N(C(=O)c2cc(=O)[nH]c3ccccc23)C(C)C)c(=O)n(-c2ccccc2)n1C` was 6.9%.
The value for `CNc1cc([N+](=O)[O-])ccc1N/C=C\C(=O)c1ccc2c(c1)OCO2` was 97.2%.
